# Reference: the supplement of paper PMC8728848
# This is one part of the list.
# B1: MpL2 (Macrolepiota procera) (protein)
# chain: MSTQVSSGQTYKITNVKAGTVIRLSGEDNKSIIGYPYHSGKNQQWTFNWTGKAWTLRSASSGSYLGIEGTPADGTRLVAVNDPFEWHIWRDEANENAFRIFVPFTNYNLDLSGYGDTTPGTPVQLWWTWEGLHQTWTIDRP
# What was measured:
# Assay in all cases: glycan array binding signal (z-score within array); higher = stronger binding
# Conditions in all cases: glycan notation: IUPAC condensed, linker removed; mutation: D22R
# Neu5Ac(a2-3)GalNAc = target: Neu5Ac(a2-3)GalNAc
# In short: (§1)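 Glycan array binding is given as a within-array Z-score, which can be read as non-binding when negative. The arrays, 3228 of them, came from the Consortium for Functional Glycomics database and were retained only where the protein sequence was available. Z-scores were averaged across arrays of the same protein sequence at different concentrations or buffers and across linkers.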
# [1] = target: Neu5Ac(a2-3)GalNAc(b1-4)GlcNAc
# In short: as §1
# [2] = target: Neu5Ac(a2-3)[GalNAc(b1-4)]Gal(b1-4)Glc
# In short: as §1
# [3] = target: Neu5Ac(a2-3)[GalNAc(b1-4)]Gal(b1-4)GlcNAc
# In short: as §1
# [4] = target: Neu5Ac(a2-3)[GalNAc(b1-4)]Gal(b1-4)GlcNAc(b1-3)GalNAc
# In short: as §1
# [5] = target: Neu5Ac(a2-3)[Neu5Ac(a2-6)]GalNAc
# In short: as §1
# Neu5Ac(a2-6)Gal = target: Neu5Ac(a2-6)Gal
# In short: as §1
# [6] = target: Neu5Ac(a2-6)Gal(b1-3)GlcNAc(b1-3)[Gal(b1-4)GlcNAc(b1-6)]Gal(b1-4)Glc
# In short: as §1
# Neu5Ac(a2-6)Gal(b1-4)Glc = target: Neu5Ac(a2-6)Gal(b1-4)Glc
# In short: as §1
# [7] = target: Neu5Ac(a2-6)Gal(b1-4)GlcNAc
# In short: as §1
# [8] = target: Neu5Ac(a2-6)Gal(b1-4)GlcNAc(b1-2)Man
# In short: as §1
# [9] = target: Neu5Ac(a2-6)Gal(b1-4)GlcNAc(b1-2)Man(a1-3)Man(b1-4)GlcNAc(b1-4)GlcNAc
# In short: as §1
# [10] = target: Neu5Ac(a2-6)Gal(b1-4)GlcNAc(b1-2)Man(a1-3)[Gal(b1-4)GlcNAc(b1-2)Man(a1-6)]Man(b1-4)GlcNAc(b1-4)GlcNAc
# In short: as §1
# [11] = target: Neu5Ac(a2-6)Gal(b1-4)GlcNAc(b1-2)Man(a1-3)[GlcNAc(b1-2)Man(a1-6)]Man(b1-4)GlcNAc(b1-4)GlcNAc
# In short: as §1
# [12] = target: Neu5Ac(a2-6)Gal(b1-4)GlcNAc(b1-2)Man(a1-3)[GlcNAc(b1-4)][Neu5Ac(a2-6)Gal(b1-4)GlcNAc(b1-2)Man(a1-6)]Man(b1-4)GlcNAc(b1-4)GlcNAc
# In short: as §1
# [13] = target: Neu5Ac(a2-6)Gal(b1-4)GlcNAc(b1-2)Man(a1-3)[Man(a1-6)]Man(b1-4)GlcNAc(b1-4)GlcNAc
# In short: as §1
# [14] = target: Neu5Ac(a2-6)Gal(b1-4)GlcNAc(b1-2)Man(a1-3)[Neu5Ac(a2-3)Gal(b1-4)GlcNAc(b1-2)Man(a1-6)]Man(b1-4)GlcNAc(b1-4)GlcNAc
# In short: as §1
# [15] = target: Neu5Ac(a2-6)Gal(b1-4)GlcNAc(b1-2)Man(a1-3)[Neu5Ac(a2-6)Gal(b1-4)GlcNAc(b1-2)Man(a1-6)]Man(b1-4)GlcNAc(b1-4)GlcNAc
# In short: as §1
# [16] = target: Neu5Ac(a2-6)Gal(b1-4)GlcNAc(b1-2)Man(a1-3)[Neu5Ac(a2-6)Gal(b1-4)GlcNAc(b1-2)Man(a1-6)]Man(b1-4)GlcNAc(b1-4)[Fuc(a1-6)]GlcNAc
# In short: as §1
# [17] = target: Neu5Ac(a2-6)Gal(b1-4)GlcNAc(b1-2)Man(a1-6)Man(b1-4)GlcNAc(b1-4)GlcNAc
# In short: as §1
# [18] = target: Neu5Ac(a2-6)Gal(b1-4)GlcNAc(b1-2)Man(a1-6)[Gal(b1-4)GlcNAc(b1-2)Man(a1-3)]Man(b1-4)GlcNAc(b1-4)GlcNAc
# In short: as §1
# [19] = target: Neu5Ac(a2-6)Gal(b1-4)GlcNAc(b1-2)Man(a1-6)[GlcNAc(b1-2)Man(a1-3)]Man(b1-4)GlcNAc(b1-4)GlcNAc
# In short: as §1
# [20] = target: Neu5Ac(a2-6)Gal(b1-4)GlcNAc(b1-2)Man(a1-6)[Man(a1-3)]Man(b1-4)GlcNAc(b1-4)GlcNAc
# In short: as §1
# [21] = target: Neu5Ac(a2-6)Gal(b1-4)GlcNAc(b1-2)[Neu5Ac(a2-6)Gal(b1-4)GlcNAc(b1-4)]Man(a1-3)[GlcNAc(b1-4)][Neu5Ac(a2-6)Gal(b1-4)GlcNAc(b1-2)[Neu5Ac(a2-6)Gal(b1-4)GlcNAc(b1-6)]Man(a1-6)]Man(b1-4)GlcNAc(b1-4)GlcNAc
# In short: as §1
# [22] = target: Neu5Ac(a2-6)Gal(b1-4)GlcNAc(b1-2)[Neu5Ac(a2-6)Gal(b1-4)GlcNAc(b1-4)]Man(a1-3)[GlcNAc(b1-4)][Neu5Ac(a2-6)Gal(b1-4)GlcNAc(b1-4)Man(a1-6)]Man(b1-4)GlcNAc(b1-4)GlcNAc
# In short: as §1
# [23] = target: Neu5Ac(a2-6)Gal(b1-4)GlcNAc(b1-2)[Neu5Ac(a2-6)Gal(b1-4)GlcNAc(b1-6)]Man(a1-6)[Neu5Ac(a2-6)Gal(b1-4)GlcNAc(b1-2)Man(a1-3)][GlcNAc(b1-4)]Man(b1-4)GlcNAc(b1-4)GlcNAc
# In short: as §1
# [24] = target: Neu5Ac(a2-6)Gal(b1-4)GlcNAc(b1-3)Gal(b1-3)GlcNAc
# In short: as §1
# [25] = target: Neu5Ac(a2-6)Gal(b1-4)GlcNAc(b1-3)Gal(b1-4)GlcNAc
# In short: as §1
# [26] = target: Neu5Ac(a2-6)Gal(b1-4)GlcNAc(b1-3)Gal(b1-4)GlcNAc(b1-2)Man(a1-3)[Neu5Ac(a2-6)Gal(b1-4)GlcNAc(b1-3)Gal(b1-4)GlcNAc(b1-2)Man(a1-6)]GalNAc
# In short: as §1
# [27] = target: Neu5Ac(a2-6)Gal(b1-4)GlcNAc(b1-3)Gal(b1-4)GlcNAc(b1-3)Gal(b1-4)GlcNAc
# In short: as §1
# [28] = target: Neu5Ac(a2-6)Gal(b1-4)GlcNAc(b1-3)Gal(b1-4)GlcNAc(b1-3)Gal(b1-4)GlcNAc(b1-2)Man(a1-3)[Neu5Ac(a2-6)Gal(b1-4)GlcNAc(b1-3)Gal(b1-4)GlcNAc(b1-3)Gal(b1-4)GlcNAc(b1-2)Man(a1-6)]GalNAc
# In short: as §1
# [29] = target: Neu5Ac(a2-6)Gal(b1-4)GlcNAc(b1-3)Gal(b1-4)GlcNAc(b1-3)GalNAc
# In short: as §1
# [30] = target: Neu5Ac(a2-6)Gal(b1-4)GlcNAc(b1-3)Gal(b1-4)GlcNAc(b1-3)[Neu5Ac(a2-6)Gal(b1-4)GlcNAc(b1-3)Gal(b1-4)GlcNAc(b1-6)]GalNAc
# In short: as §1
# [31] = target: Neu5Ac(a2-6)Gal(b1-4)GlcNAc(b1-3)Gal(b1-4)GlcNAc(b1-6)[Gal(b1-3)]GalNAc
# In short: as §1
# [32] = target: Neu5Ac(a2-6)Gal(b1-4)GlcNAc(b1-3)Gal(b1-4)[Fuc(a1-3)]GlcNAc(b1-3)Gal(b1-4)[Fuc(a1-3)]GlcNAc
# In short: as §1
# [33] = target: Neu5Ac(a2-6)Gal(b1-4)GlcNAc(b1-3)GalNAc
# In short: as §1
# [34] = target: Neu5Ac(a2-6)Gal(b1-4)GlcNAc(b1-3)[Neu5Ac(a2-6)Gal(b1-4)GlcNAc(b1-6)]GalNAc
# In short: as §1
# [35] = target: Neu5Ac(a2-6)Gal(b1-4)GlcNAc(b1-6)GalNAc
# In short: as §1
binder,measurement,setting,value
B1,glycan array binding signal (z-score),Neu5Ac(a2-3)GalNAc,-0.524
same,glycan array binding signal (z-score),[1],-0.201
same,glycan array binding signal (z-score),[2],0.07
same,glycan array binding signal (z-score),[3],-0.422
same,glycan array binding signal (z-score),[4],1.32
same,glycan array binding signal (z-score),[5],-0.364
same,glycan array binding signal (z-score),Neu5Ac(a2-6)Gal,0.467
same,glycan array binding signal (z-score),[6],-0.986
same,glycan array binding signal (z-score),Neu5Ac(a2-6)Gal(b1-4)Glc,-0.303
same,glycan array binding signal (z-score),[7],-0.396
same,glycan array binding signal (z-score),[8],-0.185
same,glycan array binding signal (z-score),[9],0.019
same,glycan array binding signal (z-score),[10],-0.214
same,glycan array binding signal (z-score),[11],-0.302
same,glycan array binding signal (z-score),[12],-0.361
same,glycan array binding signal (z-score),[13],0.099
same,glycan array binding signal (z-score),[14],-0.117
same,glycan array binding signal (z-score),[15],-0.119
same,glycan array binding signal (z-score),[16],-0.123
same,glycan array binding signal (z-score),[17],0.141
same,glycan array binding signal (z-score),[18],-0.819
same,glycan array binding signal (z-score),[19],-0.238
same,glycan array binding signal (z-score),[20],0.217
same,glycan array binding signal (z-score),[21],-0.644
same,glycan array binding signal (z-score),[22],-0.393
same,glycan array binding signal (z-score),[23],-0.457
same,glycan array binding signal (z-score),[24],0.558
same,glycan array binding signal (z-score),[25],-0.623
same,glycan array binding signal (z-score),[26],0.451
same,glycan array binding signal (z-score),[27],-0.201
same,glycan array binding signal (z-score),[28],2.64
same,glycan array binding signal (z-score),[29],-0.401
same,glycan array binding signal (z-score),[30],2.97
same,glycan array binding signal (z-score),[31],0.273
same,glycan array binding signal (z-score),[32],-0.04
same,glycan array binding signal (z-score),[33],-0.516
same,glycan array binding signal (z-score),[34],-0.455
same,glycan array binding signal (z-score),[35],0.51
